Some of the results follow.
B1: PhoQ; a variant is named by its letters at X, in order, P23837 (parent)
chain: MKKLLRLFFPLSLRVRFLLATAAVVLVLSLAYGMVALIGYSVSFDKTTFRLLRGESNLFYTLAKWENNKLHVELPENIDKQSPTMTLIYDENGQLLWAQRDVPWLMKMIQPDWLKSNGFHEIEADVNDTSLLLSGDHSIQQQLQEVREDDDDAEMTHSVAVNVYPATSRMPKLTIVVVDTIPVELKSSYMVWSWFIYVLSANLLLVIPLLWVAAWWSLRPIEALAKEVRELEEHNRELLNPATTRELTSLVRNLNRLLKSERERYDKYRTTLTDLTHSLKTPLXXLQXXLRSLRSEKMSVSDAEPVMLEQISRISQQIGYYLHRASMRGGTLLSRELHPVAPLLDNLTSALNKVYQRKGVNISLDISPEISFVGEQNDFVEVMGNVLDNACKYCLEFVEISARQTDEHLYIVVEDDGPGIPLSKREVIFDRGQRVDTLRPGQGVGLAVAREITEQYEGKIVAGESMLGGARMEVIFGRQHSAPKDE

Variants of: B1
Assay: enrichment ratio after two sorts for PhoP signalling (ratio (wild type AVST 3.29)); higher = more functional
Details: with PhoP (E. coli)

**Q.** IFMA was tested. Which enrichment ratio did it give?
**A.** The enrichment ratio was 0.252.

**Q.** For YTDK, which enrichment ratio is on record?
**A.** The enrichment ratio was ≤ 0.25.

**Q.** How did the enrichment ratio turn out when SANC was run?
**A.** Its enrichment ratio is ≤ 0.25.

**Q.** Which enrichment ratio does the source give for MCPV here?
**A.** The enrichment ratio was ≤ 0.25.

**Q.** How did the enrichment ratio turn out when PEKR was run?
**A.** Its enrichment ratio is ≤ 0.25.

**Q.** Which enrichment ratio does the source give for MREL here?
**A.** The enrichment ratio was ≤ 0.25.

**Q.** QISN was tested. Which enrichment ratio did it give?
**A.** Its enrichment ratio is 1.91.

**Q.** For LQFT, which enrichment ratio is on record?
**A.** Its enrichment ratio is ≤ 0.25.

**Q.** TQGA was tested. Which enrichment ratio did it give?
**A.** The enrichment ratio was 2.57.

**Q.** For ATLT, which enrichment ratio is on record?
**A.** The enrichment ratio was 10.2.

**Q.** With SQML as the variant, how does the enrichment ratio read?
**A.** The enrichment ratio was 4.5.

**Q.** For PKCK, which enrichment ratio is on record?
**A.** Its enrichment ratio is ≤ 0.25.

**Q.** How did the enrichment ratio turn out when SLKA was run?
**A.** The enrichment ratio was ≤ 0.25.

**Q.** How did the enrichment ratio turn out when SCEY was run?
**A.** The enrichment ratio was ≤ 0.25.

**Q.** With QHGR as the variant, how does the enrichment ratio read?
**A.** Its enrichment ratio is ≤ 0.25.

**Q.** Which enrichment ratio does the source give for AQTN here?
**A.** The enrichment ratio was ≤ 0.25.

**Q.** How did the enrichment ratio turn out when IYWM was run?
**A.** The enrichment ratio was ≤ 0.25.

**Q.** Which enrichment ratio does the source give for TQGY here?
**A.** Its enrichment ratio is 4.58.

**Q.** VDEH was tested. Which enrichment ratio did it give?
**A.** Its enrichment ratio is ≤ 0.25.

**Q.** Which enrichment ratio does the source give for CCHL here?
**A.** Its enrichment ratio is ≤ 0.25.

**Q.** How did the enrichment ratio turn out when SWLC was run?
**A.** The enrichment ratio was ≤ 0.25.

**Q.** With IKRM as the variant, how does the enrichment ratio read?
**A.** The enrichment ratio was ≤ 0.25.

**Q.** With VKCH as the variant, how does the enrichment ratio read?
**A.** The enrichment ratio was ≤ 0.25.

**Q.** Which enrichment ratio does the source give for QADW here?
**A.** The enrichment ratio was ≤ 0.25.

**Q.** YKRV was tested. Which enrichment ratio did it give?
**A.** The enrichment ratio was ≤ 0.25.

**Q.** How did the enrichment ratio turn out when FHNI was run?
**A.** Its enrichment ratio is ≤ 0.25.

**Q.** How did the enrichment ratio turn out when VTFC was run?
**A.** The enrichment ratio was ≤ 0.25.

**Q.** With HERH as the variant, how does the enrichment ratio read?
**A.** The enrichment ratio was ≤ 0.25.

**Q.** How did the enrichment ratio turn out when AGAR was run?
**A.** The enrichment ratio was ≤ 0.25.

**Q.** With LPCY as the variant, how does the enrichment ratio read?
**A.** The enrichment ratio was ≤ 0.25.

**Q.** Which enrichment ratio does the source give for FADF here?
**A.** Its enrichment ratio is ≤ 0.25.

**Q.** Which enrichment ratio does the source give for YMVK here?
**A.** Its enrichment ratio is ≤ 0.25.

**Q.** For HPTT, which enrichment ratio is on record?
**A.** Its enrichment ratio is ≤ 0.25.

**Q.** With VLEI as the variant, how does the enrichment ratio read?
**A.** The enrichment ratio was ≤ 0.25.

**Q.** How did the enrichment ratio turn out when LNEL was run?
**A.** Its enrichment ratio is ≤ 0.25.

**Q.** For HCEF, which enrichment ratio is on record?
**A.** The enrichment ratio was ≤ 0.25.

**Q.** Which enrichment ratio does the source give for VARQ here?
**A.** The enrichment ratio was ≤ 0.25.

**Q.** With RFLC as the variant, how does the enrichment ratio read?
**A.** Its enrichment ratio is 0.262.

**Q.** Which enrichment ratio does the source give for HTWC here?
**A.** The enrichment ratio was ≤ 0.25.

**Q.** How did the enrichment ratio turn out when IFMW was run?
**A.** Its enrichment ratio is ≤ 0.25.

**Q.** For GKMV, which enrichment ratio is on record?
**A.** Its enrichment ratio is ≤ 0.25.

**Q.** With VESQ as the variant, how does the enrichment ratio read?
**A.** The enrichment ratio was ≤ 0.25.

**Q.** Which enrichment ratio does the source give for AKHA here?
**A.** The enrichment ratio was ≤ 0.25.

**Q.** For ERDL, which enrichment ratio is on record?
**A.** Its enrichment ratio is ≤ 0.25.

**Q.** Which enrichment ratio does the source give for WQLD here?
**A.** The enrichment ratio was ≤ 0.25.

**Q.** For MFMP, which enrichment ratio is on record?
**A.** Its enrichment ratio is ≤ 0.25.

**Q.** With FVYF as the variant, how does the enrichment ratio read?
**A.** The enrichment ratio was ≤ 0.25.

**Q.** For QHRH, which enrichment ratio is on record?
**A.** The enrichment ratio was ≤ 0.25.

**Q.** With LHIE as the variant, how does the enrichment ratio read?
**A.** Its enrichment ratio is ≤ 0.25.

**Q.** For LEAY, which enrichment ratio is on record?
**A.** Its enrichment ratio is ≤ 0.25.

**Q.** How did the enrichment ratio turn out when PPMS was run?
**A.** The enrichment ratio was ≤ 0.25.

**Q.** How did the enrichment ratio turn out when YYCH was run?
**A.** The enrichment ratio was ≤ 0.25.

**Q.** Which enrichment ratio does the source give for ASCT here?
**A.** Its enrichment ratio is 11.1.

**Q.** With TGVG as the variant, how does the enrichment ratio read?
**A.** Its enrichment ratio is 4.28.

**Q.** How did the enrichment ratio turn out when CLIH was run?
**A.** Its enrichment ratio is ≤ 0.25.

**Q.** For MGYR, which enrichment ratio is on record?
**A.** The enrichment ratio was ≤ 0.25.

**Q.** With VHSG as the variant, how does the enrichment ratio read?
**A.** Its enrichment ratio is ≤ 0.25.

**Q.** For ASNQ, which enrichment ratio is on record?
**A.** Its enrichment ratio is ≤ 0.25.

**Q.** MLCK was tested. Which enrichment ratio did it give?
**A.** Its enrichment ratio is ≤ 0.25.

**Q.** With KFKT as the variant, how does the enrichment ratio read?
**A.** Its enrichment ratio is ≤ 0.25.

**Q.** WSVH was tested. Which enrichment ratio did it give?
**A.** Its enrichment ratio is ≤ 0.25.

**Q.** WARL was tested. Which enrichment ratio did it give?
**A.** Its enrichment ratio is ≤ 0.25.

**Q.** Which enrichment ratio does the source give for FGPY here?
**A.** The enrichment ratio was ≤ 0.25.

**Q.** How did the enrichment ratio turn out when KRHR was run?
**A.** The enrichment ratio was ≤ 0.25.

**Q.** NRDG was tested. Which enrichment ratio did it give?
**A.** The enrichment ratio was ≤ 0.25.

**Q.** Which enrichment ratio does the source give for GAMH here?
**A.** Its enrichment ratio is ≤ 0.25.

**Q.** MNRP was tested. Which enrichment ratio did it give?
**A.** The enrichment ratio was ≤ 0.25.

**Q.** With YTDI as the variant, how does the enrichment ratio read?
**A.** The enrichment ratio was ≤ 0.25.

**Q.** With SPDY as the variant, how does the enrichment ratio read?
**A.** The enrichment ratio was ≤ 0.25.

**Q.** For QINS, which enrichment ratio is on record?
**A.** The enrichment ratio was ≤ 0.25.

**Q.** For RLNM, which enrichment ratio is on record?
**A.** Its enrichment ratio is ≤ 0.25.

**Q.** MNAA was tested. Which enrichment ratio did it give?
**A.** The enrichment ratio was 8.61.

**Q.** Which enrichment ratio does the source give for VASQ here?
**A.** The enrichment ratio was ≤ 0.25.

**Q.** How did the enrichment ratio turn out when QYTC was run?
**A.** Its enrichment ratio is ≤ 0.25.

**Q.** DQQT was tested. Which enrichment ratio did it give?
**A.** Its enrichment ratio is ≤ 0.25.

**Q.** With LCKT as the variant, how does the enrichment ratio read?
**A.** Its enrichment ratio is ≤ 0.25.

**Q.** With LGGV as the variant, how does the enrichment ratio read?
**A.** The enrichment ratio was ≤ 0.25.

**Q.** With GTGS as the variant, how does the enrichment ratio read?
**A.** Its enrichment ratio is 0.373.

**Q.** With TIGG as the variant, how does the enrichment ratio read?
**A.** The enrichment ratio was 6.69.

**Q.** With SNVW as the variant, how does the enrichment ratio read?
**A.** Its enrichment ratio is 1.56.

**Q.** How did the enrichment ratio turn out when ASPY was run?
**A.** The enrichment ratio was ≤ 0.25.

**Q.** How did the enrichment ratio turn out when PHLD was run?
**A.** The enrichment ratio was ≤ 0.25.

**Q.** With ARVL as the variant, how does the enrichment ratio read?
**A.** The enrichment ratio was 4.97.

**Q.** How did the enrichment ratio turn out when HHHY was run?
**A.** Its enrichment ratio is ≤ 0.25.

**Q.** EKKV was tested. Which enrichment ratio did it give?
**A.** Its enrichment ratio is ≤ 0.25.

**Q.** For PQWF, which enrichment ratio is on record?
**A.** The enrichment ratio was ≤ 0.25.

**Q.** ADLE was tested. Which enrichment ratio did it give?
**A.** Its enrichment ratio is ≤ 0.25.

**Q.** With SVYW as the variant, how does the enrichment ratio read?
**A.** The enrichment ratio was 0.759.

**Q.** With FLRW as the variant, how does the enrichment ratio read?
**A.** Its enrichment ratio is ≤ 0.25.

**Q.** How did the enrichment ratio turn out when HYTS was run?
**A.** Its enrichment ratio is ≤ 0.25.

**Q.** Which enrichment ratio does the source give for MYGT here?
**A.** The enrichment ratio was ≤ 0.25.

**Q.** How did the enrichment ratio turn out when GENS was run?
**A.** Its enrichment ratio is ≤ 0.25.

**Q.** For HPPQ, which enrichment ratio is on record?
**A.** The enrichment ratio was ≤ 0.25.

**Q.** For LNYK, which enrichment ratio is on record?
**A.** The enrichment ratio was ≤ 0.25.

**Q.** With MIVQ as the variant, how does the enrichment ratio read?
**A.** The enrichment ratio was ≤ 0.25.

**Q.** For RDQS, which enrichment ratio is on record?
**A.** The enrichment ratio was ≤ 0.25.

**Q.** With YAVE as the variant, how does the enrichment ratio read?
**A.** The enrichment ratio was ≤ 0.25.

**Q.** For WYRQ, which enrichment ratio is on record?
**A.** The enrichment ratio was ≤ 0.25.

From a collection of fitness landscapes (doi:10.1126/science.1257360)
